Measured values from the supplement of paper PMC11417369.
± gives the standard deviation of the averaged measurements. The list shows a part of the results.

tested on: PfAP2-I AP2 domain 3 (GST-tagged); assay: gcPBM binding intensity (ln(normalized median fluorescence intensity)); higher = stronger DNA binding
Summary of the method: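 Binding intensity is the highest Masliner-normalised natural-log median intensity over replicate spots in either probe orientation. To obtain it, GST-tagged P. falciparum DNA-binding domains made in E. coli were incubated for 1 h on an Agilent 4 × 180k array of primer-extended double-stranded 36-bp intergenic genomic probes plus negative controls. Detection used Alexa488 anti-GST antibody with scanning at 488 nm.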

Sequence | gcPBM binding intensity (ln)
TATATATATATGTGTACACATGTCGCATTTTTTTAT [CACACA_site4648] | 9.34 ± 0.28
GATATTATAAAATAAAAATAAATCATTTCTATTCAT [CACACA_negctrl_site334] | 7.17 ± 0.5
TTATGTGTATAGGTTTGTACATAAAATGATGTATAG [XGTACX_site1401] | 7.85 ± 0.35
TAGTCATATATATATGTACACACATATATATATTTA [CACACA_site8413] | 7.56 ± 0.085
TCATGGAATATTTAAAGTACAAAAAGTGTTCTTTAC [XGTACX_site715] | 7.57 ± 0.59
ATATATATATATATATGTACATATATATATTATATT [XGTACX_site6303] | 9.38 ± 0.71
ACATTTAAATAATATGTGCACAGCTATATTTTCTTT [GTGCAC_site9562] | 9.92 ± 0.26
TTATGGTGCATGAAATCACACATTGATATATATGCT [CACACA_site5352] | 10 ± 0.45
GTGTCTTTTATTAAATGTACATATTCATAGATAAAA [XGTACX_site8578] | 8.14 ± 0.13
AATTGAGAAGTGTGTTGTACATAATGGCACATACCT [XGTACX_site1370] | 8.39 ± 0.59
ACCTTAAAAATAACTGCACACAAAAATAAATACCTT [CACACA_site8902] | 9.555 ± 0.007
ACGTAAACATGTAGAAGGCATTACACAATGGTATAC [TGCATGCA_negctrl_site512] | 7.92 ± 0.58
TAGAATGAAAAAAAAGCATGCGGGCAAAAATTTTTA [TGCATGCA_site926] | 8.05 ± 0.73
TTATTTTTTTGGAATTCACACACAAAAAAAAAAATA [CACACA_site8650] | 7.81 ± 0.37
ATGTGTATATATATGTGTACATAATTTGTGTTATTC [XGTACX_site2509] | 8.07 ± 0.4
TAATATGTTTATGGTAACATACAAAAATGTATATAT [GTGCAC_negctrl_site204] | 7.46 ± 0.52
TATTTTTTATTTTAAATCCTCTGATATTTAATTTGT [TGCATGCA_negctrl_site84] | 7.66 ± 0.61
TATCCCCTTGTCCATATTAATTGTGACATCATATAT [XGTACX_negctrl_site9] | 8.11 ± 0.81
AAGGTATAATATATTTGTACATATACATTTTTGAAT [XGTACX_site6493] | 7.59 ± 0.42
GATTTTAATGGGTGTACACATTTATTTATATAAAGT [CACACA_site5317] | 8.14 ± 0.42
TGAAAAATGTAATGCTCACACATATATATATATATA [CACACA_site5213] | 9.41 ± 0.24
TATTAATTTAAATGGGTGCAAAACCTATATAAATAT | 10.6 ± 0.55

Sequence | gcPBM binding intensity (ln)
AAAATGTCCCGTAGAAAATAAATTTATTACGCAATA [CACACA_negctrl_site1564] | 7.69 ± 0.54
ATTTATGTTAATAAGTGTACAATAAATTTTTTTTAT [XGTACX_site7658] | 7.75 ± 0.46
AACATATATAAATACACACACATATATATATGAAAT [CACACA_site4312] | 7.82 ± 0.38
ATATTTTATTTTAATACACACAAGTTATATAACCAC [CACACA_site6508] | 8.19 ± 0.48
TACATATATATATATGTACACACATTAATAAAAAAA [CACACA_site9058] | 8 ± 0.2
ATAACAAAAAAAAAGGTGCTACAAAATGAATAAAAA [GTGCAC_site9659] | 9.12 ± 0.3
AATATAAATAATTATACACACTTAATATATATATAC [CACACA_site5533] | 7.9 ± 0.33
TAGGTGCCTTTTTTCACACACATGTCAACTAAATAT [CACACA_site2656] | 9.29 ± 0.13
ATATTTAGGAAAAATAGTACACATTTAAATAATAAT [XGTACX_site7989] | 8.09 ± 0.53
CTTTAAATTAATAAAAGTACATTATTTATATATTTT [XGTACX_site4808] | 7.49 ± 0.23
AAATATATATATATATATATAAATATATACATATAT [TGCATGCA_negctrl_site517] | 7.54 ± 0.59
TTATGGTGCAACATTATGCACACCGTTAAATAACTA [CACACA_site3846] | 11.1 ± 0.52
ATTTATTTTGTTGTTGTTTTTATTTGATTGTTTTAT [CACACA_negctrl_site1275] | 7.67 ± 0.48
GTTTGAATGGCGCACTGTACACATATATACATATAG [XGTACX_site8619] | 8.95 ± 0.25
ACAAAATTATGTAGATGTACAGACATAGAAAGAGAT [XGTACX_site3096] | 8.42 ± 0.89
ATTTATGAAAAATGTACACACATCAAATGCTTATAT [CACACA_site4068] | 7.71 ± 0.69
CGTTTTCTATATCATTGTACATATTCATGTGTAAAT [XGTACX_site2741] | 7.77 ± 0.51
AACAGACGAAGACACACACACATATATATATATATA [CACACA_site1020] | 9.43 ± 0.4
TAAAAGTTCACCTGTACACACATATAAATATGTACA [CACACA_site6901] | 7.81 ± 0.64
ATTAATAAATTCAATTGTACTTGTTTATACATAAAA [XGTACX_site3733] | 7.64 ± 0.29
AAAATTAACCGTAACACACACACATATAAATATGTA [CACACA_site7791] | 8 ± 0.59
TTGTTTAAGTCACGAACACACATATATCATCAATTT [CACACA_site986] | 7.67 ± 0.58

Sequence | gcPBM binding intensity (ln)
TTATTTTATTTTTGTGCACACTGATAAATTGAAAAG [CACACA_site2949] | 10.8 ± 0.22
TATATTCATAATATTACACACGTTCATTTATTTTAA [CACACA_site2031] | 7.72 ± 0.58
TATGGTTTTAAAAAATGTACGCAAGTGCGTTAATTT [XGTACX_site3945] | 11.2 ± 0.93
GAGTGAAATATGCAAACACACACGAGAAAAATGTAT [CACACA_site3196] | 8.09 ± 0.85
TTATATGCATAAAAAGGTACACATATATAAATAAAT [XGTACX_site6894] | 8.23 ± 0.4
AACAACCAAACGCACACACACAAAAAAAAAAATATA [CACACA_site6326] | 8.8 ± 0.092
TTTGTGTAGGTGTGTAGTACATATAACTTATAACAT [XGTACX_site7885] | 8.38 ± 0.5
TAATAAAATGTACACGCATGCAATAGAATATAAAGT [TGCATGCA_site905] | 8.59 ± 0.85
ACATTTAAAATTTATGCATGTGGTGTTTTGTATATA [TGCATGCA_site534] | 8.01 ± 0.78
ATATTTATATATTGCACACAAAAAAAAAAAAAAATC [CACACA_site1629] | 10.4 ± 0.35
TATATATATATGTAATGTACATAAATTTTATACCTT [XGTACX_site6991] | 9.27 ± 0.53
CAGTAGTATATACTATGTACATATTTATATTATATT [XGTACX_site4964] | 7.6 ± 0.31
TAATAAATAAAAATAGAACACACATATGTTTTTTTT [CACACA_site9185] | 7.47 ± 0.63
AATATAAATAAACACACACACATATATATATATATT [CACACA_site2906] | 7.83 ± 0.45
AAAAAAAAAAAAAAATGTACATATATATAAATAAAA [XGTACX_site5574] | 8.04 ± 0.22
TTAAAATGTTGTAACGTGCACATTTTGTGGAAATCA [GTGCAC_site9559] | 9.1 ± 0.3
TATACAGATGGACACACACACATATATATATATATA [CACACA_site5272] | 9.49 ± 0.47
TTATAATTGTAAGGTAGTACATATAAATCAAATAAT [XGTACX_site7190] | 8.04 ± 0.53
ATGAATCTTTTAAAAAGTACATGTGAAAAAAATAAA [XGTACX_site49] | 7.92 ± 0.39
ATACAAACAATTATTTGTACATAAAATTTTTTTTTT [XGTACX_site90] | 7.65 ± 0.51
TTTTTTTGTTAAAAGGTGCTAATATATATAAGTGCT | 10.1 ± 0.45
GTCCCTATAAGGGGAACACACATAAATGAATATATA [CACACA_site1024] | 7.64 ± 0.41

Sequence | gcPBM binding intensity (ln)
AAATTTATAAAGAACACACACATATAAATATAAATA [CACACA_site6174] | 7.75 ± 0.76
TTATATATTTATATATGTACACATTTTACCATTTTT [XGTACX_site2142] | 7.79 ± 0.23
TTTCTATATAGATTTGCACACATAAAAATGCTTATA [CACACA_site2390] | 8.86 ± 0.12
CTTTATACATGACATAGTACCCATTTTAGATTTGAA [XGTACX_site5240] | 7.89 ± 0.49
TTTTTTTTTTTTACATGTACATATGAATTATAATAT [XGTACX_site5016] | 8.1 ± 0.67
TATTTTACTTTAAAAATGGAAAAAAAAAAGAATATT [CACACA_negctrl_site1360] | 7.59 ± 0.72
ATTGTCATCATTATATGTACGTAAAAGAATATAGAT [XGTACX_site3117] | 8.39 ± 0.4
GAAAGAAGCATAAATGTACACACATATTTATATATT [CACACA_site8368] | 7.74 ± 0.4
TTAATAAAACTAACACGTACACATATATAATATTAT [XGTACX_site3260] | 8.03 ± 0.45
AAACAAATAGACACTTGTACGTAAGTAAATAATTAA [XGTACX_site6157] | 7.74 ± 0.47
TATGTTAAAAAAAAAAAAAAGAAAAAAATAAAAGGA [CACACA_negctrl_site119] | 7.48 ± 0.54
AAATATAATTAATGATGTACACTTATAGATATTGAT [XGTACX_site8435] | 8.09 ± 0.24
TACTGATATAATATAACCGTTTATGTGTATTTTTTA [XGTACX_negctrl_site81] | 7.32 ± 0.55
TATAATAAAATTTTTACACACTTTAAAAAAAAAAAA [CACACA_site524] | 7.92 ± 0.8
TATTCTCGTTCTCATACACACAAAATATACATACAC [CACACA_site7278] | 8.16 ± 0.39
GGGTTAATATTTACTACACACACTTAAAATATGTAT [CACACA_site47] | 7.92 ± 0.57
ATGTATTTTTAAAAATATAAATTATGTAACTTGTGA [XGTACX_negctrl_site620] | 7.71 ± 0.54
CGTGGAAAAAAAAACACACACAAAAAAAAAAAAAAA [CACACA_site3997] | 8.02 ± 0.59
TTCAAATATATGTTTTCACACACAAAAGAAATGAAA [CACACA_site8671] | 7.74 ± 0.34
TTTTCTCTAAAAAGGTGTACAACTAATAATGCACTG [XGTACX_site6074] | 11.4 ± 0.31
ATATATATATAATATTGTACGAAAAAAAATAAAAAA [XGTACX_site974] | 9.025 ± 0.007
AATAAGAAAACAAATGCACACCATTTATATAGATTA [CACACA_site8261] | 9.44 ± 0.18
